# PubChem BioAssay AID485367 (National Center for Advancing Translational Sciences (NCATS), 2010)
# Out of some 330,000 compounds screened, about 560 (0.17%) were called active. This list was built around the results that the source calls inconclusive (neither active nor inactive); the mix of calls is not that of the screen. Calls come from the whole dose curve; as a rule, active = well fitted inhibition curve with a large enough effect; inconclusive = small, poorly fitted or top-dose-only effect, or effect the other way; inactive = flat fitted curve, though single readings scatter. Potencies of inconclusive entries are left out as doubtful fits.
# Biological target: ATP-dependent 6-phosphofructokinase (Trypanosoma brucei brucei) (UniProt O15648)
# Assay: qHTS Assay to Find Inhibitors of T. brucei phosphofructokinase; note: nearly all actives have a fitted effect of over 60% in size;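 for activity, negative = inhibition: 0% = uninhibited 1x PFK enzyme wells and -100% = no-enzyme wells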
# Settings: T. brucei PFK, ADP-Glo luminescence; activity, negative = inhibition: at 57.5 µM (top of the series)
# Method in brief: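 Luminescent ADP detection (ADP-Glo, two-step: ATP depletion then ADP-to-ATP conversion for luciferase) reported PFK activity after 45 min room-temperature reaction of 1.25 nM enzyme with 0.5 mM F6P and 0.1 mM ATP at pH 8.0.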
# Potency is the fitted concentration of half-maximal effect; tags give direction and shape of the fitted curve.
# UniProt O15648, sequence (O15648 whole entry, looked up): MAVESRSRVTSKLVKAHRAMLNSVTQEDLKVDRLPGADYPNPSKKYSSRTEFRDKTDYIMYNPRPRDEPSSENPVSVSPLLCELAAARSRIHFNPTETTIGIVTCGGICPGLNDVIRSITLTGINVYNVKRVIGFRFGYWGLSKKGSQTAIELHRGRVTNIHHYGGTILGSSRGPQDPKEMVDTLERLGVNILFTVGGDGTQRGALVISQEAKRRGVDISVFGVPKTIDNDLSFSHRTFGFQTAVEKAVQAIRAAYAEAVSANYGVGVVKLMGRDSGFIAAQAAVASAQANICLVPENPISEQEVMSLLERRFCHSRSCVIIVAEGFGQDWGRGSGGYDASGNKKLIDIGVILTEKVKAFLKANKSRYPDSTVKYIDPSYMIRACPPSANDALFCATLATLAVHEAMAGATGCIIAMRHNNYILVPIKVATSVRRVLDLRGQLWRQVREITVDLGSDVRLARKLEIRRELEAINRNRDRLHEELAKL
Structure (SMILES),Potency,"activity, negative = inhibition"
C=CCn1c(COc2ccc(F)cc2)nnc1SCC(=O)NC(=O)NCc1ccco1,"inconclusive [falling, single point]",
CC[n+]1c(-c2ccccc2)csc1Nc1c(C)n(C)n(-c2ccccc2)c1=O,,inactive: -1.88%
O=C(COC(=O)c1cccnc1Cl)NC1CCCc2ccccc21 (centres undefined),"inconclusive [falling, single point]",
CC(C)(CS(=O)(=O)[O-])NC(=O)CC[N+](C)(C)CCO,active: 0.675 µM,
CCCCCC(=O)Nc1cc(S(=O)(=O)N2CCOCC2)ccc1N1CCCCC1,"inconclusive [falling, single point]",
COc1ccc(/C=C/C(=O)c2cc3c(cc2N)OCO3)cc1,"inconclusive [activator, single point]",
O=C(Nc1ccc(C(=O)N2CCCC2)cc1)c1ccc2c(c1)OCO2,,inactive: 2.1%
CC1Cc2ccccc2N1C(=O)CSc1nnc(NC(=O)Cc2cccs2)s1 (centres undefined),,inactive: -17%
COc1cc(/C=C2\C(=N)N3N=C(S(C)(=O)=O)SC3=NC2=O)ccc1OC(=O)c1ccco1,,inactive: 0.623%
O=C(CSc1ccccc1Cl)c1ccco1,"inconclusive [falling, single point]",
CCC(C)[C@H](NC(=O)NCc1ccc(Cl)cc1)C(=O)OC (some centres undefined),,inactive: -2.8%
O=C(O)C1C2C=CC(C2)C1C(=O)Nc1ccc(Cl)c(Cl)c1 (centres undefined),active: 21.3 µM,
COc1ccc(N=Nc2n(C)c3ccccc3[n+]2C)cc1,"inconclusive [falling, partial curve]",
Oc1cc(O)c2c(c1)OC(c1ccc(O)c(O)c1)C(O)C2 (centres undefined),"inconclusive [falling, single point]",
Cc1ccc(-c2cc(C(F)(F)F)n3ncc(C(=O)O)c3n2)cc1,,inactive: 8.66%
CCOc1cc(CNc2ccc(N3CCOCC3)cc2)cc(Br)c1OCC,"inconclusive [falling, single point]",
O=C(COC(=O)c1ccccc1OC(F)F)Nc1ccc2[nH]c(=O)[nH]c2c1,"inconclusive [falling, partial curve]",
CC(=O)Nc1ccccc1C(=O)C(=O)Nc1cccc(C(=O)NC2CC2)c1,"inconclusive [falling, single point]",
COc1ccccc1N=c1oc2cc(O)ccc2cc1C(=O)NCC1CCCO1 (centres undefined),,inactive: -15.8%
C=CCOC(=O)c1cc(-c2ccc(/C=C3\C(=O)NC(=O)C(C#N)=C3C)o2)ccc1Cl,"inconclusive [falling, single point]",
N#Cc1sc(NCc2cccc(Cl)c2)nc1Cl,"inconclusive [falling, partial curve]",
CC1=NOC(=O)/C1=C\c1ccc(-c2ccc(Br)cc2C(=O)O)o1,"inconclusive [falling, partial curve]",
O=C(c1cnn2cccnc12)N1CCN(c2ccccc2)CC1,"inconclusive [falling, single point]",
O=C(NC1CCCC1)C(c1ccccn1)N(C(=O)c1csnn1)C1CC1 (centres undefined),,inactive: -7.28%
CCOc1ccc(CN2CCNC(=O)C2CC(=O)N(C)CC2CCOCC2)cc1 (centres undefined),"inconclusive [falling, single point]",

Structure (SMILES),Potency,"activity, negative = inhibition"
COc1ccc(-c2cc(COc3ccccc3)on2)cc1,,inactive: 1.45%
CC1CCc2c(sc(N)c2C(N)=O)C1 (centres undefined),,inactive: -16.8%
Cc1ccc(NC(=O)CN(C)C(=O)c2cccc(S(=O)(=O)NCc3ccco3)c2)cc1,"inconclusive [falling, single point]",
Cn1c(CN2CCCC2)nc2cc(NC(=O)COc3ccc([N+](=O)[O-])cc3)ccc21,"inconclusive [falling, partial curve]",
O=[N+]([O-])c1cc(-c2ncccn2)c([N+](=O)[O-])s1,"inconclusive [falling, single point]",
CC(=O)Nc1ccc(S(=O)(=O)NNc2cccc(C)c2)cc1,"inconclusive [falling, single point]",
Cn1cc(/C=N/NC(=O)c2cc3cc(Br)ccc3o2)c2ccccc21,,inactive: 1.64%
S=C(NCCc1ccccn1)NC1CCCCC1,"inconclusive [falling, single point]",
CCN(C(=O)CSc1nnnn1C)C1CCCCC1,,inactive: 0%
NC(=O)C1CCCN(C(=O)c2ccc(Cl)c(S(=O)(=O)N3CCc4ccccc43)c2)C1 (centres undefined),"inconclusive [falling, single point]",
Cc1cc(=O)[nH]c(SCC(=O)N2c3ccccc3CC2C)n1 (centres undefined),"inconclusive [falling, single point]",
O=c1c2ccccc2cnn1Cc1n[nH]c(=S)n1C1CC2CCC1C2 (centres undefined),,inactive: -0.848%
c1ccc2c(c1)CCCN2c1nc(N2CCOCC2)nc(N2CCOCC2)n1,,inactive: -0.566%
CN(C)/C=C/c1[nH]c(=O)[nH]c(=O)c1[N+](=O)[O-],,inactive: -3.75%
COc1ccc(S(=O)(=O)N=C2C=C(C)C(=O)C(C)=C2)cc1,,inactive: 1.18%
Cc1cccc(NCc2ccc([N+](=O)[O-])s2)c1,"inconclusive [falling, partial curve]",
COc1cccc(C2/C(=C(/O)c3ccccc3)C(=O)C(=O)N2CCCC(=O)O)c1 (centres undefined),"inconclusive [falling, single point]",
O=S(=O)(NCC(O)COCc1ccco1)c1cccs1 (centres undefined),"inconclusive [falling, single point]",
Cc1oc2c(C)c(O)ccc2c(=O)c1-c1nncn1-c1ccccc1,,inactive: 0.308%
O=C(CSc1nnc(COc2ccccc2)o1)NC1CC2CCC1C2 (centres undefined),,inactive: -13.7%
O=C(Cc1ccccc1)NN1C(=O)/C(=C/c2ccccc2C(=O)O)SC1=S,"inconclusive [activator, single point]",
O=C(Cc1cccs1)Nc1nnc(SCC(=O)NC2CCCCC2)s1,,inactive: -3.14%
COC(=O)c1cc(NC(=O)c2cc(C(C)(C)C)nn2Cc2ccc(F)cc2)ccc1N1CCOCC1,,inactive: 2.23%
Cc1cccc(Cn2cnc3c(nnn3Cc3ccc(Cl)cc3)c2=O)c1,"inconclusive [falling, single point]",
